According to the supplement of paper PMC12217912:
The list shows a part of the results. Sequences were assembled here from the parent chain. Inactive controls read about 0.05.

B1: TEV protease; numbered along this chain (parent)
chain: MGESLFKGPRDYNPISSSICHLTNESDGHTTSLYGIGFGPFIITNKHLFRRNNGTLVVQSLHGVFKVKDTTTLQQHLVDGRDMIIIRMPKDFPPFPQKLKFREPQREERICLVTTNFQTKSMSSMVSDTSCTFPSGDGIFWKHWIQTKDGQCGSPLVSTRDGFIVGIHSASNFTNTNNYFTSVPKNFMELLTNQEAQQWVSGWRLNADSVLWGGHKVFMVKPEEPFQPVKEATQL

Variants of: B1
Test: raw area under fraction-flipped curve 0-4 h after induction (AUC4h, not background-subtracted), DNA-recorder readout of cleavage of the substrate (dimensionless); higher = more cleavage of the substrate by the protease variant
Conditions: temperature: 34 °C; time window: 0-4 h after rhamnose induction
Method: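 In vivo DNA recorder in E. coli TOP10(DE3) ΔrhaA at 34 °C. Each TEVp single-site mutant (parent TEVp 0) is paired with a single-site variant of the 7-mer TEVs (canonical ENLYFQ|S). The substrate sits between flexible linkers in a Bxb1-sfGFP-TEVs-SsrA fusion, so cleavage stabilises Bxb1 and speeds flipping of a recombination array, read by NGS. The value is the raw area under the fraction-flipped curve over 0-4 h after rhamnose induction (AUC4h), with ≥20 reads per time point. It is not background-subtracted; inactive controls average about 0.047.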
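Further: Bxb1 expression induced with 0.2% (w/v) L-rhamnose at OD600 near 0.5, cultures sampled hourly, flipped fraction per protease–substrate barcode pair counted by paired-end Illumina sequencing.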

| Variant | area with substrate ENLAFQS | area with substrate ENLCFQS | area with substrate ENLDFQS | area with substrate ENLEFQS | area with substrate ENLFFQS | area with substrate ENLHFQS | area with substrate ENLIFQS | area with substrate ENLKFQS | area with substrate ENLMFQS | area with substrate ENLNFQS | area with substrate ENLPFQS | area with substrate ENLSFQS | area with substrate ENLVFQS | area with substrate ENLWFQS | area with substrate ENLGFQS | area with substrate ENLLFQS | area with substrate ENLQFQS | area with substrate ENLRFQS | area with substrate ENLTFQS |
| --- | --- | --- | --- | --- | --- | --- | --- | --- | --- | --- | --- | --- | --- | --- | --- | --- | --- | --- | --- |
| S171V | 0.0486 | 0.0687 | 0.0613 | 0.05 | 0.0847 | 0.0695 | 0.0755 | 0.0618 | 0.058 | 0.0676 | 0.0549 | 0.0686 | 0.0684 | 0.0591 |  |  |  |  |  |
| S182N | 0.0631 | 0.0525 | 0.0527 |  | 0.0749 | 0.0556 |  | 0.0608 |  | 0.0496 | 0.0461 | 0.0633 |  |  | 0.0581 | 0.0499 | 0.0492 | 0.0417 |  |
| S182K | 0.0725 | 0.0317 | 0.0623 | 0.0615 | 0.0847 | 0.064 |  | 0.073 | 0.0899 | 0.0621 | 0.0581 | 0.0405 | 0.0676 | 0.0635 | 0.0573 |  | 0.0555 |  |  |
| I145Q | 0.0672 | 0.0679 | 0.0405 | 0.0565 | 0.0572 | 0.0743 |  | 0.0408 | 0.0799 | 0.0478 |  | 0.0669 | 0.0744 | 0.0718 | 0.0621 | 0.06 | 0.0658 | 0.0594 |  |
| F180G | 0.0544 |  |  | 0.0455 | 0.064 | 0.0674 | 0.0427 | 0.0631 |  |  | 0.0726 | 0.0646 | 0.0606 | 0.0584 | 0.0565 |  | 0.0766 | 0.0818 |  |
| F180W | 0.06 |  | 0.0531 | 0.0661 | 0.0562 | 0.0598 | 0.069 | 0.0721 |  | 0.0587 | 0.0387 | 0.0588 | 0.0498 |  | 0.0644 |  |  |  |  |
| G162A | 0.0659 |  | 0.0475 | 0.064 | 0.0629 |  |  | 0.0561 |  | 0.0746 |  | 0.0658 |  |  |  | 0.0631 |  |  |  |
| T147G | 0.0279 | 0.073 | 0.0608 | 0.0694 |  | 0.0661 |  |  |  | 0.0669 |  |  |  | 0.0524 |  |  |  | 0.0451 |  |
| T147W | 0.0663 |  | 0.0784 | 0.0516 | 0.0639 | 0.0605 | 0.0706 | 0.0764 | 0.0373 | 0.072 | 0.0687 |  |  | 0.0619 | 0.0937 | 0.0636 | 0.0681 | 0.0817 |  |
| T147I | 0.0499 | 0.0559 | 0.0563 | 0.0574 | 0.0665 | 0.048 |  | 0.0639 | 0.0907 | 0.0617 | 0.0664 | 0.0684 |  | 0.0635 | 0.0648 |  | 0.0492 | 0.0962 |  |
| Q198W | 0.0706 | 0.0643 | 0.055 | 0.0643 | 0.0695 |  | 0.105 | 0.0842 | 0.0552 | 0.0545 | 0.0584 | 0.0744 |  | 0.0801 |  | 0.0638 |  | 0.068 |  |
| Q198R | 0.0525 |  |  | 0.0636 |  | 0.0775 | 0.0916 | 0.0856 |  | 0.0573 | 0.0649 | 0.0367 |  |  |  |  |  |  |  |
| L156C | 0.0865 |  |  |  | 0.0784 | 0.0713 | 0.0843 | 0.0865 |  |  | 0.0382 | 0.0547 |  | 0.0729 |  | 0.0785 | 0.0828 | 0.0648 |  |
| L156G | 0.0483 | 0.0598 | 0.0467 | 0.0576 | 0.066 | 0.058 | 0.0567 | 0.0521 | 0.0692 | 0.0501 | 0.0401 | 0.0308 |  | 0.0631 |  |  |  | 0.0707 |  |
| D149V | 0.0711 |  | 0.0609 | 0.0655 | 0.138 |  | 0.0686 | 0.0625 |  | 0.0617 | 0.0507 | 0.0283 |  |  |  |  |  |  |  |
| S154L | 0.0848 | 0.134 | 0.0637 | 0.0636 |  | 0.0775 | 0.0979 | 0.108 | 0.0882 | 0.0632 | 0.0592 | 0.0663 |  |  |  |  |  |  |  |
| S154C | 0.0699 | 0.0724 | 0.0653 | 0.0703 | 0.0679 | 0.0706 | 0.0504 | 0.0772 | 0.0675 | 0.068 | 0.0679 | 0.0809 | 0.0896 | 0.0526 |  | 0.074 | 0.0501 | 0.0857 |  |
| S154R | 0.0316 | 0.074 | 0.0569 | 0.0542 | 0.0928 | 0.0566 | 0.0483 | 0.0676 |  | 0.0643 | 0.0681 | 0.0648 | 0.0754 | 0.0856 |  | 0.0751 | 0.0563 | 0.07 |  |
| S154F | 0.0668 |  |  | 0.0651 |  | 0.0691 |  | 0.0601 |  |  | 0.0391 |  |  |  | 0.0547 |  | 0.0663 |  |  |
| S201A | 0.0555 | 0.111 | 0.0847 | 0.0817 | 0.075 | 0.0637 | 0.0654 | 0.0732 | 0.0697 | 0.078 | 0.0502 | 0.0559 |  | 0.0611 |  | 0.0715 | 0.0599 | 0.0665 |  |
| G150P | 0.0546 | 0.0676 |  |  | 0.0574 | 0.0659 | 0.0878 | 0.0622 | 0.0523 | 0.0639 | 0.0595 | 0.0605 | 0.0552 |  | 0.0606 | 0.0569 | 0.0457 | 0.0568 | 0.0702 |
| G150Q | 0.0616 | 0.0691 |  |  | 0.0643 | 0.0435 | 0.0616 | 0.0489 | 0.0322 | 0.0701 |  | 0.0517 | 0.057 | 0.062 | 0.081 | 0.0733 | 0.0715 | 0.0624 |  |
| R160P | 0.0666 | 0.0544 | 0.0532 | 0.0467 | 0.061 | 0.0583 | 0.0776 | 0.0721 |  | 0.0659 |  |  |  |  |  | 0.0652 | 0.0613 | 0.0611 |  |
| R160S | 0.0641 |  | 0.0719 |  |  |  |  |  |  | 0.0562 |  |  |  |  |  |  |  |  |  |
| L190H | 0.0594 | 0.0795 | 0.0534 |  | 0.0828 | 0.0626 |  | 0.0625 |  | 0.0679 | 0.0651 | 0.0503 |  |  |  | 0.0716 | 0.0767 | 0.062 | 0.0702 |
| W199R | 0.0765 | 0.0536 | 0.061 | 0.0435 | 0.0573 | 0.0612 |  | 0.0445 | 0.07 | 0.0783 | 0.0686 | 0.0845 |  | 0.0567 |  |  |  | 0.0561 |  |
| W199L | 0.0685 |  | 0.0697 |  | 0.0595 | 0.0405 | 0.0647 |  |  | 0.0656 |  | 0.0486 |  | 0.0426 |  |  | 0.0627 | 0.0547 |  |
| Q194T | 0.0536 | 0.0726 | 0.0637 |  | 0.0712 | 0.0629 | 0.0785 | 0.0632 | 0.0722 | 0.0656 | 0.0558 | 0.0678 | 0.105 | 0.0701 |  | 0.0616 |  | 0.0735 |  |
